Measurements from paper PMC4336329 (PLoS ONE, 2015).
About 2,200 (0.71%) of roughly 310,000 compounds showed an effect of 50% or more. Effects have a minus sign here. This is one part of the list.

Target: human ether-à-go-go-related gene (hERG) potassium channel (human, UniProt Q12809)
Experiment: primary screen, population patch clamp on CHO cells stably expressing hERG

human ether-à-go-go-related gene (hERG) potassium channel, sequence (Q12809 whole entry, looked up): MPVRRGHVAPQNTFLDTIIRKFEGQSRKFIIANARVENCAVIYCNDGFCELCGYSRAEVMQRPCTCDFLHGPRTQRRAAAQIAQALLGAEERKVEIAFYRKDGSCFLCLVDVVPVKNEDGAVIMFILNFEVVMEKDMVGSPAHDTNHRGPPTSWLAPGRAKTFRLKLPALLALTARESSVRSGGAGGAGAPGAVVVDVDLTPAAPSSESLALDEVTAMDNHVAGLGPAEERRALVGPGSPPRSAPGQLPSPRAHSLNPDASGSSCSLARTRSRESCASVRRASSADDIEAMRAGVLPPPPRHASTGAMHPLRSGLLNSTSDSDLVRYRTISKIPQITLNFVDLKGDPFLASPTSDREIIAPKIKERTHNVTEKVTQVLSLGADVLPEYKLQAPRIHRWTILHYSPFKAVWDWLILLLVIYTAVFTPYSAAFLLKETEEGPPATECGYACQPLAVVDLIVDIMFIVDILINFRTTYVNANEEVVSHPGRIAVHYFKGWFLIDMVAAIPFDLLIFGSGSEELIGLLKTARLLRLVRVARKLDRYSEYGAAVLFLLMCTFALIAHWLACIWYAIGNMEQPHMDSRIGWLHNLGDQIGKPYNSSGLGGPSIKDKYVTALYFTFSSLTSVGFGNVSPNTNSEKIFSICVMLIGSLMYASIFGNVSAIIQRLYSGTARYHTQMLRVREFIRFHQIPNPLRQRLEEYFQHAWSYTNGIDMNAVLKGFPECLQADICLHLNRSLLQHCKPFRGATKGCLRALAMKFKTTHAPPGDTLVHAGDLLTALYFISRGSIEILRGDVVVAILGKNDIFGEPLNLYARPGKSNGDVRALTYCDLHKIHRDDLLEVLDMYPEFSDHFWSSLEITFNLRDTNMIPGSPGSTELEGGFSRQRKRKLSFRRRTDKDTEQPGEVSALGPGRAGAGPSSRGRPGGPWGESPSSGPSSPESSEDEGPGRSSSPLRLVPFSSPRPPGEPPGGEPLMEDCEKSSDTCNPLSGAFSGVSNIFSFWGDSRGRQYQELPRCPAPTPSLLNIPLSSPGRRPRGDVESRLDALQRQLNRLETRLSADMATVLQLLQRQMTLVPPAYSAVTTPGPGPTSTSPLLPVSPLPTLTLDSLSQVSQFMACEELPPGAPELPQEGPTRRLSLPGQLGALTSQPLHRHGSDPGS

SMILES | hERG current change (%, negative = inhibition) at 1uM [%]
O=C(NCc1ccc(Cl)cc1)NCC(F)(F)F | 10.9
Cc1ccccc1NC(=S)NC(NC(=O)c1ccco1)C(Cl)(Cl)Cl (centres unmarked) | -0.827
Oc1ccccc1-c1nc(NCc2cccnc2)c2ccccc2n1 | 14.8
COC(=O)Cc1c(O)ccn(Cc2cccc(C(F)(F)F)c2)c1=O | 9.56
CC(C)(CNc1ccc(C(F)(F)F)cc1[N+](=O)[O-])N1CCOCC1 | 13.4
C=CCn1c(O)c(C(CC)=NCc2ccco2)c(=O)[nH]c1=O | 2.16
c1ccc(CC2CCCCN2)cc1 (centres unmarked) | 9.57
Brc1ccc(-c2csc(N3CCCCCC3)n2)cc1 | 11.5
O=C(CN1C(=O)S/C(=C\c2ccccc2)C1=O)NC1CCS(=O)(=O)C1 (centres unmarked) | 10.1
COc1ccc(OC)c(C(=O)c2ccc(C(=O)Nc3ccc4ccccc4c3)cc2)c1 | 11.5
Cc1ccc(NC(=O)CSc2nnc(C3CC3)n2C)cc1S(=O)(=O)N1CCCCC1 | 8.55
COCc1nnc(NC(=O)c2cc(OC)c(OC)cc2[N+](=O)[O-])s1 | 2.64
Cc1ncc(N=Nc2ccccc2Cl)c(-c2ccccc2)n1 | 4.61
CC(C)(C)NC(=O)CN(Cc1cccs1)C(=O)CN1C(=O)C(=O)c2ccccc21 | 6.95
COc1ccc(C(=O)OCC(=O)Nc2ccc(F)c(F)c2F)cc1OC | -19.3
Cn1cc(/C=C2\SC(=S)N(N3CCOCC3)C2=O)c2ccccc21 | 13.8
CCCN(CC(=O)Nc1cc(Cl)ccc1Cl)C(=O)/C=C/c1ccco1 | 1.79
Cc1cccc(C(=O)N2CCN(S(=O)(=O)N3CCCCCC3)CC2)c1 | 8.87
COc1ccc(OCC(O)CNc2ccc(Br)cc2)cc1 (centres unmarked) | 13.3
CCOc1cc(N2CCOCC2)c(OCC)cc1NC(=O)CCC1CCCC1 | 8.21
COc1ccc(OC)c(C2C(C(=O)Nc3nc4ccccc4s3)=C(C)NC3=C2C(=O)CCC3)c1 (centres unmarked) | 13.3
S=C(NCCc1ccccc1)NCC1CCCO1 (centres unmarked) | 5.58

SMILES | hERG current change (%, negative = inhibition) at 1uM [%]
Cc1ccc(NC(=O)CSc2nnc(CCNC(=O)OC(C)(C)C)o2)c(C)c1 | -6.04
O=C(Nc1ccc2c(c1)OCO2)C1CCCN1C(=O)Nc1cccc(F)c1 (centres unmarked) | -13.3
CCN(CC)C1=C(Cl)C(=O)C(Cl)C12OCCO2 (centres unmarked) | 12.1
CN(CC(=O)Nc1c(Cl)cccc1Cl)C(=O)CCCN1C(=O)c2ccccc2C1=O | 14.8
CCCCCCC(=O)Nc1ccc(C(=O)N2CCCC2)cc1 | 4.94
Cn1cccc1C(=O)Nc1nccs1 | 11.4
Cc1cccc(NC(=O)c2cc(S(=O)(=O)NCc3ccco3)ccc2F)c1C | 4.22
Cc1cc2c(c(=O)n1CC1CCCO1)C(c1ccco1)C(C#N)=C(N)O2 (centres unmarked) | 13.1
O=C1NC(=S)S/C1=C\c1cc2ccccc2nc1N1CCCCC1 | 8.93
CCOC(=O)N1CCN(S(=O)(=O)c2cc(Cl)c(OC)cc2Cl)CC1 | 15.5
COc1ccc(NC(=O)CC2C(=O)N(c3ccc(OC)cc3)C(=O)N2CCc2cccs2)cc1 (centres unmarked) | 7.3
COc1ccc(-c2cn[nH]c2-c2ccc(OCc3ccc([N+](=O)[O-])cc3)cc2O)cc1 | -0.406
CCOC(=O)CC(NC(=O)c1cc2ccccc2oc1=O)c1cccc([N+](=O)[O-])c1 (centres unmarked) | 8.81
O=C(Nc1c2c(nn1-c1ccccc1)CS(=O)C2)c1ccc2c(c1)OCO2 (centres unmarked) | 4.15
CCOC1(c2ccccc2)OC(=O)c2ccccc21 (centres unmarked) | 7.3
COc1cc(CNS(=O)(=O)c2ccc3c(c2)CC(C)N3C(=O)C2CCC2)cc(OC)c1OC (centres unmarked) | 0.406
COc1ccc(OC)c(C(=O)c2ccc(C(=O)c3cc(OC)ccc3OC)cc2)c1 | 4.89
N#Cc1cccc(NC(=O)CCNS(=O)(=O)c2ccc3[nH]c(=O)oc3c2)c1 | 15.8
CC1CCCCC1NC(=O)CCS(=O)(=O)c1cccc2nonc12 (centres unmarked) | 4.02
COc1cccc(NC(=S)N(Cc2ccco2)C(C)c2ccco2)c1 (centres unmarked) | 6.13
COc1ccc(NC(=O)COC(=O)c2cc(C)oc2C)c([N+](=O)[O-])c1 | 10.5
COc1cc(OC)cc(C(=O)NCC(=O)OC2CCOC2=O)c1 (centres unmarked) | 13.3
